Reference: the supplement of paper PMC7826260
The list shows a part of the results. One pool of 16,384 single-stranded DNAs met each Rep nickase domain in vitro (3 µM enzyme, 1 h, 37 °C); shown is the middle of each 90-letter strand. Numbers give uncut DNA relative to the enzyme-free pool, as log2; the lower, the more was cut; hits are not called. The scaling is to total reads; where an enzyme cuts many sequences, the uncut ones exceed 0.

tested on: T1, Rep nickase domain of Muscovy duck circovirus; test: uncleaved DNA left, log2 of reads against the no-enzyme library (log2 ratio); higher = less cleavage (more negative = more Rep cleavage of the k-mer); sequences stand for … in CTCGTCCG…ACCGGAGA
T1 sequence (Rep 1-111, printed without the tag): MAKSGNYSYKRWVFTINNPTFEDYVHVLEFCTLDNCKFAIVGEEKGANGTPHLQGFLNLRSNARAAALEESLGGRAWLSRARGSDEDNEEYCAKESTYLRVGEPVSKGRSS
Method: (§1)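 A pool of 90-nt single-stranded DNAs with seven random bases just before the constant AC of the nick site (name = the seven bases) was cut by 3 µM recombinant His6-SUMO-tagged Rep nickase domain (300 nM DNA, 50 mM HEPES pH 8.0, 50 mM NaCl, 1 mM MnCl2, 1 h, 37 °C, three replicates). Uncut DNA was amplified and sequenced.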

| Sequence | uncleaved DNA left (log2) |
| --- | --- |
| GACAGTG | 0.0513 |
| AATGGGC | 0.115 |
| TTCGCGG | 0.0784 |
| AGGGGGA | 0.0439 |
| ATATTCG | 0.0505 |
| ATACCAC | 0.035 |
| GACCAAT | -0.036 |
| CTACCGT | -0.112 |
| ATAAAAG | 0.138 |
| GCCCGTT | 0.0801 |
| GCATTAT | -0.228 |
| TGTCGAC | 0.0282 |
| TTTTAGC | -0.0665 |
| GTGAAGT | 0.0753 |
| CCACCCC | -0.137 |
| CAGTTGG | -0.0401 |
| AGCGCAG | 0.0153 |
| CACGATA | -0.0846 |
| GGGGTCT | 0.00662 |
| GGTAATC | 0.157 |

| Sequence | uncleaved DNA left (log2) |
| --- | --- |
| TGGACAA | 0.238 |
| AATGGAT | -0.0147 |
| GAACTGC | -0.0518 |
| GAACGAT | 0.0322 |
| CCATATA | -0.0813 |
| CTGGCGA | 0.04 |
| CATTGGC | -0.0696 |
| TGAAACC | 0.0329 |
| AAAGCTG | 0.0579 |
| ATGTAGC | 0.0505 |
| TTTCAGA | 0.0307 |
| ATCTATA | -0.00313 |
| CTTCGCT | -0.00853 |
| CGCAGGG | -0.0308 |
| TCAGTCT | -0.142 |
| TCTTTCG | 0.0677 |
| GCCTTCG | -0.0698 |
| CCACCAG | -0.0489 |
| CGATCCA | -0.0506 |
| CCAGCAA | 0.00034 |

tested on: T2, Rep nickase domain of banana bunchy top virus; test: as above
T2 sequence (Rep 1-94, printed without the tag): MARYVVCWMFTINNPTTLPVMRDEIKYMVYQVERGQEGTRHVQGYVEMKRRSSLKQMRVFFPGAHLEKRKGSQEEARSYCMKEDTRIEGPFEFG
Method: as §1

| Sequence | uncleaved DNA left (log2) |
| --- | --- |
| GACAGTG | -0.0564 |
| AATGGGC | -0.0323 |
| TTCGCGG | 0.0417 |
| AGGGGGA | 0.0354 |
| ATATTCG | 0.107 |
| ATACCAC | 0.125 |
| GACCAAT | -0.12 |
| CTACCGT | -0.0812 |
| ATAAAAG | 0.0853 |
| GCCCGTT | 0.0855 |
| GCATTAT | -0.00469 |
| TGTCGAC | -0.134 |
| TTTTAGC | -0.0601 |
| GTGAAGT | 0.075 |
| CCACCCC | -0.0423 |
| CAGTTGG | -0.152 |
| AGCGCAG | 0.122 |
| CACGATA | 0.00359 |
| GGGGTCT | 0.147 |
| GGTAATC | 0.23 |

| Sequence | uncleaved DNA left (log2) |
| --- | --- |
| TGGACAA | 0.256 |
| AATGGAT | 0.0631 |
| GAACTGC | 0.0182 |
| GAACGAT | 0.0148 |
| CCATATA | 0.00719 |
| CTGGCGA | -0.157 |
| CATTGGC | -0.186 |
| TGAAACC | 0.194 |
| AAAGCTG | 0.0871 |
| ATGTAGC | -0.0351 |
| TTTCAGA | -0.0899 |
| ATCTATA | -0.0361 |
| CTTCGCT | -0.0347 |
| CGCAGGG | 0.0773 |
| TCAGTCT | -0.121 |
| TCTTTCG | 0.00954 |
| GCCTTCG | -0.00878 |
| CCACCAG | -0.118 |
| CGATCCA | -0.0457 |
| CCAGCAA | -0.0289 |

tested on: T3, Rep nickase domain of cabbage leaf curl virus; test: as above
T3 sequence (Rep 1-116, printed without the tag): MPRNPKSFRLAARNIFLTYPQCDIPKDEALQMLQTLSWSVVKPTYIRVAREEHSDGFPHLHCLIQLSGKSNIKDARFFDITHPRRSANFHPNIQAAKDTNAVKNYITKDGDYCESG
Method: as §1

| Sequence | uncleaved DNA left (log2) |
| --- | --- |
| GACAGTG | -0.516 |
| AATGGGC | 0.00239 |
| TTCGCGG | 0.442 |
| AGGGGGA | 0.313 |
| ATATTCG | -0.74 |
| ATACCAC | 0.121 |
| GACCAAT | 0.151 |
| CTACCGT | -0.506 |
| ATAAAAG | -0.687 |
| GCCCGTT | 0.316 |
| GCATTAT | 0.104 |
| TGTCGAC | 0.0687 |
| TTTTAGC | -0.431 |
| GTGAAGT | 0.3 |
| CCACCCC | 0.0309 |
| CAGTTGG | -0.647 |
| AGCGCAG | 0.0466 |
| CACGATA | -0.285 |
| GGGGTCT | 0.818 |
| GGTAATC | 0.715 |

| Sequence | uncleaved DNA left (log2) |
| --- | --- |
| TGGACAA | 1.02 |
| AATGGAT | 0.254 |
| GAACTGC | 0.0495 |
| GAACGAT | 0.234 |
| CCATATA | -0.187 |
| CTGGCGA | -0.649 |
| CATTGGC | -0.883 |
| TGAAACC | 0.413 |
| AAAGCTG | 0.436 |
| ATGTAGC | -0.503 |
| TTTCAGA | 0.0812 |
| ATCTATA | -0.0349 |
| CTTCGCT | -0.309 |
| CGCAGGG | -0.0131 |
| TCAGTCT | -0.24 |
| TCTTTCG | -0.818 |
| GCCTTCG | -0.707 |
| CCACCAG | -0.892 |
| CGATCCA | -0.017 |
| CCAGCAA | -0.0351 |

tested on: T4, Rep nickase domain of chickpea chlorotic dwarf virus; test: as above
T4 sequence (Rep 1-124, printed without the tag): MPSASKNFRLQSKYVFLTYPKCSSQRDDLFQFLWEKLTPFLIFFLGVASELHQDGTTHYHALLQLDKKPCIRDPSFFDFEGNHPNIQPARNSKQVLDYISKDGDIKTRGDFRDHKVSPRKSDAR
Method: as §1

| Sequence | uncleaved DNA left (log2) |
| --- | --- |
| GACAGTG | -0.396 |
| AATGGGC | 0.179 |
| TTCGCGG | 1.2 |
| AGGGGGA | 0.927 |
| ATATTCG | 0.502 |
| ATACCAC | -0.336 |
| GACCAAT | -0.0628 |
| CTACCGT | -1.76 |
| ATAAAAG | -0.308 |
| GCCCGTT | 0.0051 |
| GCATTAT | -0.0195 |
| TGTCGAC | 0.306 |
| TTTTAGC | -0.62 |
| GTGAAGT | 0.831 |
| CCACCCC | -0.525 |
| CAGTTGG | -0.662 |
| AGCGCAG | 0.535 |
| CACGATA | -2.18 |
| GGGGTCT | 1.84 |
| GGTAATC | 1.57 |

| Sequence | uncleaved DNA left (log2) |
| --- | --- |
| TGGACAA | 2.3 |
| AATGGAT | 1.6 |
| GAACTGC | 0.214 |
| GAACGAT | 0.261 |
| CCATATA | -1.63 |
| CTGGCGA | -0.323 |
| CATTGGC | -0.612 |
| TGAAACC | 0.325 |
| AAAGCTG | 1.77 |
| ATGTAGC | -0.59 |
| TTTCAGA | -0.242 |
| ATCTATA | -1.7 |
| CTTCGCT | -1.43 |
| CGCAGGG | 0.326 |
| TCAGTCT | -2.08 |
| TCTTTCG | -0.259 |
| GCCTTCG | -0.355 |
| CCACCAG | -0.759 |
| CGATCCA | -0.478 |
| CCAGCAA | -0.322 |

tested on: T5, Rep nickase domain of faba bean necrotic yellows virus; test: as above
T5 sequence (Rep 1-98, printed without the tag): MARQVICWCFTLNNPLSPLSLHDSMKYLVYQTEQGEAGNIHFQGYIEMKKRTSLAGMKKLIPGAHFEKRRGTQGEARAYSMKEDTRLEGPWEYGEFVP
Method: as §1

| Sequence | uncleaved DNA left (log2) |
| --- | --- |
| GACAGTG | 0.0406 |
| AATGGGC | -0.0243 |
| TTCGCGG | -0.00138 |
| AGGGGGA | 0.0291 |
| ATATTCG | 0.165 |
| ATACCAC | 0.0477 |
| GACCAAT | -0.0475 |
| CTACCGT | -0.132 |
| ATAAAAG | 0.0416 |
| GCCCGTT | 0.17 |
| GCATTAT | 0.00705 |
| TGTCGAC | -0.0557 |
| TTTTAGC | -0.0868 |
| GTGAAGT | -0.0321 |
| CCACCCC | 0.0401 |
| CAGTTGG | -0.00475 |
| AGCGCAG | -0.031 |
| CACGATA | 0.026 |
| GGGGTCT | 0.0319 |
| GGTAATC | 0.0832 |

| Sequence | uncleaved DNA left (log2) |
| --- | --- |
| TGGACAA | 0.205 |
| AATGGAT | -0.0528 |
| GAACTGC | 0.0322 |
| GAACGAT | 0.0529 |
| CCATATA | 0.0205 |
| CTGGCGA | 0.00882 |
| CATTGGC | 0.0476 |
| TGAAACC | 0.0786 |
| AAAGCTG | 0.106 |
| ATGTAGC | 0.0209 |
| TTTCAGA | -0.123 |
| ATCTATA | 0.00578 |
| CTTCGCT | -0.0859 |
| CGCAGGG | 0.158 |
| TCAGTCT | -0.128 |
| TCTTTCG | 0.0838 |
| GCCTTCG | -0.0312 |
| CCACCAG | -0.164 |
| CGATCCA | -0.00132 |
| CCAGCAA | -0.0964 |
